Measurements published in article PMC7819943, “Rice protein-binding microarrays: a tool to detect cis-acting elements near promoter regions in rice”.
Some of the results follow.

biological target: T1, OsWOX13 (Oryza sativa, UniProt Q5QMM3 1-267); assay: protein-binding microarray (RPBM); PBS, 2% BSA, 51.3 ng/ul salmon testes DNA, 50 uM zinc acetate, 200 nM TF, 25 C, 1 h; high values mean tight binding; conditions: protein: recombinant; tags: N-terminal polyhistidine and DsRed monomer fusion (pET32a); label: CyDye5-dUTP incorporated in the synthesized complementary strand; 3' TTTTT single-stranded linker to array surface; dsDNA, one strand shown
T1 sequence: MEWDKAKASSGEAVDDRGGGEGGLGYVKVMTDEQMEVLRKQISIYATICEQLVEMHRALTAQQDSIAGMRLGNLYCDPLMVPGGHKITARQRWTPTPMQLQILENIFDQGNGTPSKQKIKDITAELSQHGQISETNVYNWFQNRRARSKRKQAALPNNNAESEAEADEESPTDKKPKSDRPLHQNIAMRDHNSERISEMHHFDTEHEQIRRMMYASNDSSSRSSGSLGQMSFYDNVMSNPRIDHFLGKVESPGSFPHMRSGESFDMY
Outline: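 An Axon 4000B scanner gave the binding signal as per-feature fluorescence intensity in arbitrary units. This followed washing of a custom Agilent array that had been incubated for 1 h at 25 °C with 200 nM protein in PBS, 2% BSA, salmon testes DNA and 50 µM zinc acetate. The proteins were transcription factors fused at the N-terminus to polyhistidine and DsRed, expressed in E. coli BL21-CodonPlus and purified on Ni–NTA.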

Row | Sequence | binding signal
1 | ATAAGATTAGCTATAATCTTATCCAACAAAATTATGTGCTCGGAGTCACCTAGTGCAG | 27300 fluorescence intensity (a.u.)
2 | ATGTAATTAATTAAAATAAGCAAAGGTGCCCGTGCGTTGCCGGAGTCACCTAGTGCAG | 43700 fluorescence intensity (a.u.)
3 | CACACCTGACCTGACTAATCAGTAATCACCACTAATGCATCGGAGTCACCTAGTGCAG | 5140 fluorescence intensity (a.u.)
4 | GCAAATCACATTACCATGCAATCCCCGGCCCATAAGTCATCGGAGTCACCTAGTGCAG | 3810 fluorescence intensity (a.u.)
5 | CGAGTGCAATGTGATTGGTAGGGGTGGCTCAGGGAAAGTGCGGAGTCACCTAGTGCAG | 16600 fluorescence intensity (a.u.)
6 | ACTGATTTTAACTTACTACACACGATGGAAACACGATTGGCGGAGTCACCTAGTGCAG | 22200 fluorescence intensity (a.u.)
7 | TGTGACACATTATAATGAATCTGGATAGACGGACCGCCTACGGAGTCACCTAGTGCAG | 6200 fluorescence intensity (a.u.)
8 | CGACACGCTGATTAATTATTTGGCAAAATCGCGCTATATACGGAGTCACCTAGTGCAG | 19200 fluorescence intensity (a.u.)
9 | TATGAATAATTATAATAATTAATAATTTGCAAAATGGGCCCGGAGTCACCTAGTGCAG | 33800 fluorescence intensity (a.u.)
10 | CTTTCGCCGGTAAAATGGATTGATGGAAGCGTGTACCGTGCGGAGTCACCTAGTGCAG | 3940 fluorescence intensity (a.u.)
11 | TAATTAAGCTGAAAATTTTATTGACAGAAACAACGCAAAGCGGAGTCACCTAGTGCAG | 3500 fluorescence intensity (a.u.)
12 | ACAGAAATAAATGATTTATCTAAATGTTATTAATGAAATCCGGAGTCACCTAGTGCAG | 10900 fluorescence intensity (a.u.)
13 | TACTTAATTAATCATGTGCTAATGGCTAACCTCGTTTTGCCGGAGTCACCTAGTGCAG | 33300 fluorescence intensity (a.u.)
14 | GAAGGGTTATGATTGGTTGAGAAGAGAATGTTGGTGGAGACGGAGTCACCTAGTGCAG | 22100 fluorescence intensity (a.u.)
15 | AGATAGATTAATATATGATAAATCACTAATATCAAATTTACGGAGTCACCTAGTGCAG | 5780 fluorescence intensity (a.u.)
16 | ACAACTACTGATTATATTCTTATATATTTATTGTGCTTTTCGGAGTCACCTAGTGCAG | 7360 fluorescence intensity (a.u.)
17 | CCTGCCATCAACTGAAATTGAATTTGTCAACGACAGTCAACGGAGTCACCTAGTGCAG | 9020 fluorescence intensity (a.u.)
18 | TGCTAATTTTCAAGTTTCCCATTCATCACACATGATCGCACGGAGTCACCTAGTGCAG | 14700 fluorescence intensity (a.u.)
19 | AGTTGGTAGCAATTGATTGATTCCCCGTCACACGCACGCACGGAGTCACCTAGTGCAG | 40000 fluorescence intensity (a.u.)
20 | ATCTATAATTAGATTGATATGATTATCTTGTGTACAACAACGGAGTCACCTAGTGCAG | 37800 fluorescence intensity (a.u.)
21 | AATATAACTTCTGTCAACAGTTACTATATAGCCGTGCCTCCGGAGTCACCTAGTGCAG | 3990 fluorescence intensity (a.u.)

Row | Sequence | binding signal
22 | GCTCGATCATTCTACTTAATTAATTTGCAACTTAATTTGTCGGAGTCACCTAGTGCAG | 20200 fluorescence intensity (a.u.)
23 | TGAAGAAATTCAATCATATGGAAAGCTTTCCACTAAGGCCCGGAGTCACCTAGTGCAG | 6630 fluorescence intensity (a.u.)
24 | ACTAACTAATTCATAGTTTTGATCGTTTGGCCAACGGGTGCGGAGTCACCTAGTGCAG | 7540 fluorescence intensity (a.u.)
25 | AACATCAATTACAAAAGGGTTTTCTCTATCTAATAATTGACGGAGTCACCTAGTGCAG | 6300 fluorescence intensity (a.u.)
26 | TTCCCTAAATTTGCAAACGCCATATGAACATTCGTTCATGCGGAGTCACCTAGTGCAG | 5720 fluorescence intensity (a.u.)
27 | TGTATGTGTGTACTCGTAATTAGTGAGAATTTAAATTCATCGGAGTCACCTAGTGCAG | 3820 fluorescence intensity (a.u.)
28 | ATAACAATCATAGTGGCAAATTAAAGCGTGTAATGATGCACGGAGTCACCTAGTGCAG | 15500 fluorescence intensity (a.u.)
29 | CAAATTAATTTGTCCAGATGTTAAATGCTGTTGTTCTTTACGGAGTCACCTAGTGCAG | 35600 fluorescence intensity (a.u.)
30 | TGGAATGATGTGATGGAAAAGTTGAAAGTTTGTGTGTGTACGGAGTCACCTAGTGCAG | 5390 fluorescence intensity (a.u.)
31 | TTTAATTTGATGGTAAAAGGGAAATCAAGGAAAGGAGAATCGGAGTCACCTAGTGCAG | 15700 fluorescence intensity (a.u.)
32 | CCTAACTTGACAGCAATCAGTTTCAAGTGGCCAAGTGCCACGGAGTCACCTAGTGCAG | 25100 fluorescence intensity (a.u.)
33 | CGGTGACAAGCGAGATGAAAGATTGAAGCAACTCTTCACGCGGAGTCACCTAGTGCAG | 3900 fluorescence intensity (a.u.)
34 | TTTGATAGTTAGTTCTGTTACCAATCAAATGTTTATGTTGCGGAGTCACCTAGTGCAG | 15900 fluorescence intensity (a.u.)
35 | CAAAATAGACTTATTACAATCATTCAAATATGGCCCGAAGCGGAGTCACCTAGTGCAG | 15100 fluorescence intensity (a.u.)
36 | AGTCATTAATGTATAATTAATTTAGTTTAATTATTATTGACGGAGTCACCTAGTGCAG | 47200 fluorescence intensity (a.u.)
37 | ATTCTAAATGACTAATTTATTCCTAAAGTTATATAACTCACGGAGTCACCTAGTGCAG | 6400 fluorescence intensity (a.u.)
38 | CAGATAGCATAAAATTGAAGGTGACCATCATCAACTGTATCGGAGTCACCTAGTGCAG | 3380 fluorescence intensity (a.u.)
39 | ACTGATTGATTTGGAAGGAGAGAAATACTATGTTGGGTTTCGGAGTCACCTAGTGCAG | 63700 fluorescence intensity (a.u.)
40 | CAAATTAGCCCACAATCATAAATTACCAAATTGCCCTTGACGGAGTCACCTAGTGCAG | 14900 fluorescence intensity (a.u.)
41 | ATATATCTAACCATAATTAATTAACAATTAACCTGTGTTACGGAGTCACCTAGTGCAG | 21800 fluorescence intensity (a.u.)
42 | TCCTAATCTTCTTAATTTTGCACTCTCTCCAAATTTTGATCGGAGTCACCTAGTGCAG | 7980 fluorescence intensity (a.u.)
